According to the supplement of paper PMC12067093, “Discovery and optimisation of a covalent ligand for TRIM25 and its application to targeted protein ubiquitination” (Chemical Science, 2025):
About 21,000 targets were measured; listed, in parts, are those with the largest changes and a random draw of the rest.

Compound: Cc1cc(ccc1-c1ccccc1)C(=O)N1CCCN(CC1)C(=O)CCl [compound 10]
Experiment: probe-labelled cysteine peptide fold change vs DMSO (competition) (log2 fold change); higher = less target engagement (more negative = stronger competition)
Conditions: THP-1, incubation time: 4 h
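Further: competitive profiling in live THP-1 cells: cysteine peptides tagged with an iodoacetamide desthiobiotin (IA-DTB) probe, intensity after compound treatment relative to DMSO-treated cells.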

UniProt P43490, sequence (P43490 whole entry, looked up): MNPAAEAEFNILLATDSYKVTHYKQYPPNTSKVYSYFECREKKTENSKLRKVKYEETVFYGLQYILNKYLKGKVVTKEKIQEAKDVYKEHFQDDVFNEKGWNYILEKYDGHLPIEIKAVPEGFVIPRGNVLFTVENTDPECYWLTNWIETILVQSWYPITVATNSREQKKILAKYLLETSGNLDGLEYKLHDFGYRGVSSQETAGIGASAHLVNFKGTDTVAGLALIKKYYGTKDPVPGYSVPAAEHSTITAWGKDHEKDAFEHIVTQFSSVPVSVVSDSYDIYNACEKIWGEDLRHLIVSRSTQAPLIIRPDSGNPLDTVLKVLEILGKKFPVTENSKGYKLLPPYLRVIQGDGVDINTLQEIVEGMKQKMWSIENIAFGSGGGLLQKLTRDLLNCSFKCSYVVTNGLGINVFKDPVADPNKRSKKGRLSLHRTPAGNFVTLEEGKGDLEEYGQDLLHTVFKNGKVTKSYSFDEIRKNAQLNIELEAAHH
UniProt O75607, sequence (O75607 whole entry, looked up): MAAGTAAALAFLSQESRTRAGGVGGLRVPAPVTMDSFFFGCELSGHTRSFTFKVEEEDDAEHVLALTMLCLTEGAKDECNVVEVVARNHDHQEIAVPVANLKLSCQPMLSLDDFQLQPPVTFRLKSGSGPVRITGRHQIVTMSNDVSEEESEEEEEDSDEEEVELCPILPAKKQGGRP
UniProt Q460N5, sequence (Q460N5 whole entry, looked up): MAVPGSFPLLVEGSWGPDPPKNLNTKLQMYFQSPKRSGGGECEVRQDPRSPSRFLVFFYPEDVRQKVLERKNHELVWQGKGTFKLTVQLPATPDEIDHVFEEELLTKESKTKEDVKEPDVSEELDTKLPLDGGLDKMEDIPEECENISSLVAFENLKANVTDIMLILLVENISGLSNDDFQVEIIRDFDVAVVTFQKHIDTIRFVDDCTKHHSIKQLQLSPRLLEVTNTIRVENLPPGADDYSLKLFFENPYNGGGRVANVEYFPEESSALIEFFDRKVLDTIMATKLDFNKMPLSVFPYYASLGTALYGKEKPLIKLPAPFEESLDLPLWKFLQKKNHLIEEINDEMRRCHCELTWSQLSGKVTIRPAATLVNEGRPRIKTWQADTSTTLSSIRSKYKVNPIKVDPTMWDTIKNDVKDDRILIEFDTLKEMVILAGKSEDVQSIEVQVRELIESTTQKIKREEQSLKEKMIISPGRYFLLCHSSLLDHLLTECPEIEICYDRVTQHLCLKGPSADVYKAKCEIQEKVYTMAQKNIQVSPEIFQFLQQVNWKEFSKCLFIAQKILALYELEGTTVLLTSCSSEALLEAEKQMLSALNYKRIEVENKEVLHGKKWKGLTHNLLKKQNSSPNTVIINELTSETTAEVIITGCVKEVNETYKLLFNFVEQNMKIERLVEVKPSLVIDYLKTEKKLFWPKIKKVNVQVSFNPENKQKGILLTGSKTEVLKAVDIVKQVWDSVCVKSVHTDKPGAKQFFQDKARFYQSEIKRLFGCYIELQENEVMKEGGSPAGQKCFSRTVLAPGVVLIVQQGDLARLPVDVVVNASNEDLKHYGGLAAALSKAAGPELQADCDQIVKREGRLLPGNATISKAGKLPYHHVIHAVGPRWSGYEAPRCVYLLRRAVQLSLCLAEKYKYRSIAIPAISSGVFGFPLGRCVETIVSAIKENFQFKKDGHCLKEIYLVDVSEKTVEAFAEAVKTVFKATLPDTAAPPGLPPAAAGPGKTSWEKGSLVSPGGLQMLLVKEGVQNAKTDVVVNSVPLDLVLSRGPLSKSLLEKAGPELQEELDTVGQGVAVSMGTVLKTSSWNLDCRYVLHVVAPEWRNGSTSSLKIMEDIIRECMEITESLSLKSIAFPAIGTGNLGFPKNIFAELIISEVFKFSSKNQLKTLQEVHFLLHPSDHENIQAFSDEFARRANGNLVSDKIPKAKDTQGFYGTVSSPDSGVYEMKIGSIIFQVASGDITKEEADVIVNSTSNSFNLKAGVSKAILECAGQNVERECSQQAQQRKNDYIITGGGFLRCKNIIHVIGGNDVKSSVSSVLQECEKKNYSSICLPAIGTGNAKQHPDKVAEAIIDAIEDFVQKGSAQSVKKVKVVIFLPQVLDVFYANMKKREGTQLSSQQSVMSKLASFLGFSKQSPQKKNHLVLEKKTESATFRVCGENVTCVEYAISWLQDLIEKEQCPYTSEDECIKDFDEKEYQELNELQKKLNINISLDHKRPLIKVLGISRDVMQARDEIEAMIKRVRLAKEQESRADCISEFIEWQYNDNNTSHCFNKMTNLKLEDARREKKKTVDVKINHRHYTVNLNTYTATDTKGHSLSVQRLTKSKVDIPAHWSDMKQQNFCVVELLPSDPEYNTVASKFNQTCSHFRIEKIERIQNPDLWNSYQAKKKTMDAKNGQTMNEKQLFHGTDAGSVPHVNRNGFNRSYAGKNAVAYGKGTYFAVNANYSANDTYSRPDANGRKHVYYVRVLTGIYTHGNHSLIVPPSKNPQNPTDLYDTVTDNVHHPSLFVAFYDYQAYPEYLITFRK
UniProt Q9BRJ7, sequence (Q9BRJ7 whole entry, looked up): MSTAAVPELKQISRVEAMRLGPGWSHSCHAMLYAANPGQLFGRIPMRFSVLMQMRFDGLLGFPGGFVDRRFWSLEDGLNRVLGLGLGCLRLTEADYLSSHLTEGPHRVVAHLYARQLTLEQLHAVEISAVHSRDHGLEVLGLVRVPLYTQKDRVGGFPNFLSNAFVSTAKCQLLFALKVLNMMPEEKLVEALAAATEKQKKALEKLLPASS
UniProt Q9ULE6, sequence (Q9ULE6 whole entry, looked up): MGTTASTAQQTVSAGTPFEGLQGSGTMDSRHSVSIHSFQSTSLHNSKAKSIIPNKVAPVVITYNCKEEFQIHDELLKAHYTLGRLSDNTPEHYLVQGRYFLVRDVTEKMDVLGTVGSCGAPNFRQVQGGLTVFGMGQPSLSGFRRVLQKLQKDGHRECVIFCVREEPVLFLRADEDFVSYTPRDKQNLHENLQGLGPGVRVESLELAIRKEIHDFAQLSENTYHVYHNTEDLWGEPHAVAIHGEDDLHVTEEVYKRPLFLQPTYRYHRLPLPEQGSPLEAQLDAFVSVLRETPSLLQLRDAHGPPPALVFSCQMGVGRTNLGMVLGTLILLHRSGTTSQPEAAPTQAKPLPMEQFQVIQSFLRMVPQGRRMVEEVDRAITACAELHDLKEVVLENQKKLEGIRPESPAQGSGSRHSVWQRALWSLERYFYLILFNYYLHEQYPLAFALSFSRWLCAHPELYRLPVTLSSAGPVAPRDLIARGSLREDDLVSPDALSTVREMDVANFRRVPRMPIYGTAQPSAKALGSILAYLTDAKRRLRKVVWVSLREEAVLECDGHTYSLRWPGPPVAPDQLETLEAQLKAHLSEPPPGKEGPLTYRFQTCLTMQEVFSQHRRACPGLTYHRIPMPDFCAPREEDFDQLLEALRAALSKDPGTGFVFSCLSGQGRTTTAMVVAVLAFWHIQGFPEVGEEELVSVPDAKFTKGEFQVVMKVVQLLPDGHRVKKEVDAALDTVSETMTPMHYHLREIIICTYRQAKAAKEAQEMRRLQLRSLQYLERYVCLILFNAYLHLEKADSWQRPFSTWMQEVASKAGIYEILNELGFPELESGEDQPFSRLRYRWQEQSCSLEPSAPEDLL
UniProt Q8N573, sequence (Q8N573 whole entry, looked up): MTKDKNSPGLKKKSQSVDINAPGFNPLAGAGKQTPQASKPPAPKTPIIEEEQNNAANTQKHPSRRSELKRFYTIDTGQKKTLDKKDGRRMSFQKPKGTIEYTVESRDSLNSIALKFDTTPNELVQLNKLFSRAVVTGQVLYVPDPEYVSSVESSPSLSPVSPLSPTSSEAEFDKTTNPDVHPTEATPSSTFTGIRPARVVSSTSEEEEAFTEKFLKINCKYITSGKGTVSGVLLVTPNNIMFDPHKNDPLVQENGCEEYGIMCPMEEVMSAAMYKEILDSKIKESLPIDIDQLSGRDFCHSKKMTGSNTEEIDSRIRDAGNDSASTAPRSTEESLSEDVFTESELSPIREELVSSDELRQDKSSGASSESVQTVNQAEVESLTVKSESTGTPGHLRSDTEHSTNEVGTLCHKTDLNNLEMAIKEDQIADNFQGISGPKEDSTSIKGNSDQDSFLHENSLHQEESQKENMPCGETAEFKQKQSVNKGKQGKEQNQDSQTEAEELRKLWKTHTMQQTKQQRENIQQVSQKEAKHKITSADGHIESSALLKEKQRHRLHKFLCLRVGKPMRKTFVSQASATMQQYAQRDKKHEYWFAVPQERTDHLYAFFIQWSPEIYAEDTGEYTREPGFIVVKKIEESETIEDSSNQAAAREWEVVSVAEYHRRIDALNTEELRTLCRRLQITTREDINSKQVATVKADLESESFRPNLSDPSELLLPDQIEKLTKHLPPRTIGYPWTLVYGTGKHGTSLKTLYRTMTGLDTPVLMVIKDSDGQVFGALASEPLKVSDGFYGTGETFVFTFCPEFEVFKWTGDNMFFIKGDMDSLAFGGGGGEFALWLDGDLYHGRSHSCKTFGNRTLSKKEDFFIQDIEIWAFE
UniProt Q9BZD4, sequence (Q9BZD4 whole entry, looked up): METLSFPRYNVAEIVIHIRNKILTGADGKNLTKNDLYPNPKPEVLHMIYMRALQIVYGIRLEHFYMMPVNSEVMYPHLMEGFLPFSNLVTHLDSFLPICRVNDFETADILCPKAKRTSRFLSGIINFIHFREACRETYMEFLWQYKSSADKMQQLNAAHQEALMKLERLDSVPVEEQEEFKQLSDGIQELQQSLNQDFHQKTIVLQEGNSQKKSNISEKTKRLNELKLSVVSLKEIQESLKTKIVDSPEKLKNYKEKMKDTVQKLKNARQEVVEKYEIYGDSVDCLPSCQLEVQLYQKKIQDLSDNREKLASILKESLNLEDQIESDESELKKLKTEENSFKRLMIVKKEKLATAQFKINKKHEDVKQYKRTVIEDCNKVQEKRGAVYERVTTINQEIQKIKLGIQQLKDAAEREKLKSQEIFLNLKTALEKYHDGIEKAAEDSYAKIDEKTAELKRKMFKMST
UniProt Q9BRA0, sequence (Q9BRA0 whole entry): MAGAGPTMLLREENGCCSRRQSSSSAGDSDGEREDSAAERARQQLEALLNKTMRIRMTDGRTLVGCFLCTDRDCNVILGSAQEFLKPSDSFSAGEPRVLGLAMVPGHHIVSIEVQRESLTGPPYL

Target	probe-labelled cysteine peptide fold change (10 µM)	probe-labelled cysteine peptide fold change (50 µM)
PAK3_O75914_424_LTDFGFCAQITPEQSK (UniProt O75914)	0.0891	-0.18
NAIP_Q13075_1335_HFTECIK (UniProt Q13075)	0.0839	-0.266
NAA38_Q9BRA0_17_EENGCCSR (UniProt Q9BRA0)	-0.19	-1.1
NUP210_Q8TEM1_962_GVAMVHPLLPGSSTIMIHDLCLVFPAPAK (UniProt Q8TEM1)	0.115	0.281
NUP205_Q92621_237_QSLAESLFAWACQSPLGK (UniProt Q92621)	0.243	0.658
NONO_Q15233_208_CSEGSFLLTTFPR (UniProt Q15233)	-0.102	0.262
NCKAP1L_P55160_36_TCSDPK (UniProt P55160)	-0.356	-0.267
PARP16_Q8N5Y8_169_LENFHSIIHNGLHCHLNK (UniProt Q8N5Y8)	-0.0878	-0.518
NOC2L_Q9Y3T9_585_VQENSAYICSR (UniProt Q9Y3T9)	-0.398	-1.67
NOTCH1_P46531_1345_CPAGFEGATCENDAR (UniProt P46531)	-0.339	-0.0307
NFXL1_Q6ZNB6_705_AGPECLHCEEGCSK (UniProt Q6ZNB6)	-0.0128	-0.0864
P4HB_P07237_397+400_NVFVEFYAPWCGHCK (UniProt P07237)	-0.47	-1.51
NCOR1_O75376_987_QEQIDLECR (UniProt O75376)	-0.0519	0.329
NSUN6_Q8TEA1_242_ILDLCAAPGGK (UniProt Q8TEA1)	-0.181	0.0653
PANK4_Q9NVE7_513_EHCLNEFNFPDPYSK (UniProt Q9NVE7)	-0.0863	-0.358
NUTF2_P61970_80_IQHSITAQDHQPTPDSCIISMVVGQLKADEDPIMGFHQMFLLK (UniProt P61970)	-0.263	-1.1
OSBPL1A_Q9BXW6_387_ECDMAK (UniProt Q9BXW6)	-0.806	-2.25
NIT2_Q9NQR4_153_VGLGICYDMR (UniProt Q9NQR4)	-0.849	-3
NT5DC1_Q5TFE4_119_HFLSDTGMACR (UniProt Q5TFE4)	-0.525	-1.75
NDUFB7_P17568_90_HDWDYCEHR (UniProt P17568)	-0.0995	0.0691
OPLAH_O14841_466_VANEAMCRPIR (UniProt O14841)	0.178	0.00561

Target	probe-labelled cysteine peptide fold change (10 µM)	probe-labelled cysteine peptide fold change (50 µM)
OCRL_Q01968_370_FVFHNTTFCIVNSHLAAHVEDFER (UniProt Q01968)	0.205	0.4
NUF2_Q9BZD4_111_VNDFETADILCPK (UniProt Q9BZD4)	-0.148	-0.234
OGFR_Q9NZT2_87_HNYPDLVERDCNGDTPNLSFYR (UniProt Q9NZT2)	-0.169	-0.149
NFX1_Q12986_615_TCMDPVPSCGK (UniProt Q12986)	-0.151	-0.233
MYO5B_Q9ULV0_514_LGILDLLDEECK<|>MYO5A_Q9Y4I1_513_LGILDLLDEECK (UniProt Q9Y4I1+Q9ULV0)	-0.00572	0.227
NAMPT_P43490_397_DLLNCSFK (UniProt P43490)	0.116	-0.122
NDUFA8_P51970_46_EFMLCR (UniProt P51970)	-0.135	0.173
NUDT16L1_Q9BRJ7_88_VLGLGLGCLR (UniProt Q9BRJ7)	-0.287	-1.6
OXR1_Q8N573_410_SDTEHSTNEVGTLCHK (UniProt Q8N573)	0.00922	-0.0971
NF1_P21359_1016_LCQLVEVMMAR (UniProt P21359)	0.0392	0.0791
NISCH_Q9Y2I1_935_GTHNCR (UniProt Q9Y2I1)	-0.272	-2.06
OGFOD2_Q6N063_209_FLQPLMALLYPDCGGGR (UniProt Q6N063)	0.12	1.08
NSF_P46459_21_CPTDELSLTNCAVVNEK (UniProt P46459)	-0.173	0.166
OTULINL_Q9NUU6_226_GSMCNTLFSDAILEYK (UniProt Q9NUU6)	-0.0829	0.208
NAT10_Q9H0A0_255_ESLQDTQPVGVLVDCCK (UniProt Q9H0A0)	0.232	-0.332
OCIAD2_Q56VL3_27_QSLLFCPK (UniProt Q56VL3)	-0.259	-1.11
PARP10_Q53GL7_1004_YDSAVDCICQPSIFVIFHDTQALPTHLITCEHVPR (UniProt Q53GL7)	-0.486	-1.15
NAA10_P41227_17+21_NARPEDLMNMQHCNLLCLPENYQMK (UniProt P41227)	-0.179	-0.636
NLE1_Q9NVX2_152_FWDLSTETPHFTCK (UniProt Q9NVX2)	0.126	0.171
P3H1_Q32P28_483_VVMDGVISDHECQELQR (UniProt Q32P28)	0.0375	0.105
NUMA1_Q14980_1907_NSFYMGTCQDEPEQLDDWNR (UniProt Q14980)	-0.0197	-0.403

Target	probe-labelled cysteine peptide fold change (10 µM)	probe-labelled cysteine peptide fold change (50 µM)
NOSIP_Q9Y314_185_TVTCPMSGKPLR (UniProt Q9Y314)	-0.00821	-1.11
P4HB_P07237_312_KEECPAVR (UniProt P07237)	-0.0418	0.0208
NPM3_O75607_79_DECNVVEVVAR (UniProt O75607)	0.189	0.498
NOL8_Q76FK4_630_HEDPSIISMEDGSPYVNGSLGEVTPCQHAK (UniProt Q76FK4)	-0.0436	-0.297
NKTR_P30414_173_VIDCGVLATK (UniProt P30414)	-0.147	-0.203
PARP14_Q460N5_1274_ECSQQAQQR (UniProt Q460N5)	-0.264	-0.217
PARP10_Q53GL7_983_YDSAVDCICQPSIFVIFHDTQALPTHLITCEHVPR (UniProt Q53GL7)	-0.38	-1.65
NDUFA11_Q86Y39_18_QYWDIPDGTDCHR (UniProt Q86Y39)	0.125	0.21
NSUN2_Q08J23_758_AGEPNSPDAEEANSPDVTAGCDPAGVHPPR (UniProt Q08J23)	-0.194	0.151
NDUFAF6_Q330K2_236_VFLPMDICMLHGVSQEDFLR (UniProt Q330K2)	-0.034	0.567
P4HB_P07237_397+400_KNVFVEFYAPWCGHCK (UniProt P07237)	-0.713	-1.7
PARK7_Q99497_106_GLIAAICAGPTALLAHEIGFGSK (UniProt Q99497)	-0.496	-2.74
PAN3_Q58A45_838_DHLFHQVTEAGAPWIDLSHIISCLNK (UniProt Q58A45)	0.00674	0.439
NUP155_O75694_104_RVPLPPELVEQFGHMQCNCMMGVFPPISR (UniProt O75694)	0.251	-0.248
NPEPPS_P55786_887_TIQQCCENILLNAAWLK (UniProt P55786)	-0.0839	-0.336
PACSIN2_Q9UNF0_38+44_LCSDLMNCLHER (UniProt Q9UNF0)	-0.167	-0.262
NMT2_O60551_251_KMVEINFLCVHK<|>NMT1_P30419_249_KMVEINFLCVHK (UniProt P30419+O60551)	-0.0324	-0.335
MYO9B_Q13459_1279_SKPCGSPR (UniProt Q13459)	-0.389	-1.2
NMNAT3_Q96T66_12_IPVVLLACGSFNPITNMHLR (UniProt Q96T66)	0.482	1
NECTIN1_Q15223_172_VLVATCTSANGKPPSVVSWETR (UniProt Q15223)	-0.213	-2.04
NUP133_Q8WUM0_1037_QLNLSAMPVLTAPQLIGLYICEENRR (UniProt Q8WUM0)	-0.0647	-0.151

Target	probe-labelled cysteine peptide fold change (10 µM)	probe-labelled cysteine peptide fold change (50 µM)
MYO19_Q96H55_755_VFMTDSMLELLECGR (UniProt Q96H55)	-0.495	-1.33
NCDN_Q9UBB6-2_5_ASDCEPALNQAEGR (UniProt Q9UBB6)	-0.0631	0.014
OPA1_O60313_801_CNEEHPAYLASDEITTVR (UniProt O60313)	-0.225	-0.156
P4HB_P07237_397_NVFVEFYAPWCGHCK (UniProt P07237)	-0.446	-1.32
OTULINL_Q9NUU6_177_LLFSQGCNWIQQYSFGPEK (UniProt Q9NUU6)	-0.101	-0.0508
NCDN_Q9UBB6_98_EAPDGCPDHVLR (UniProt Q9UBB6)	-0.102	-0.415
NCAPH_Q15003_418_TMCPLLSMK (UniProt Q15003)	-0.465	-1.14
OCIAD2_Q56VL3_130+137_HCLLTCEECK (UniProt Q56VL3)	-0.0269	-0.143
PALD1_Q9ULE6_118_MDVLGTVGSCGAPNFR (UniProt Q9ULE6)	-0.214	0.00454
NT5DC1_Q5TFE4_62+63_ELLNVTPEDWDFCCK (UniProt Q5TFE4)	0.0814	-0.241
NR3C1_P04150_457_AVEGQHNYLCAGR (UniProt P04150)	-0.218	-0.294
NUP37_Q8NFH4_172_IWNLEGVQTAHFVLHSPGMSVCWHPEETFK (UniProt Q8NFH4)	0.129	0.142
PAPSS2_O95340_497_STIVAIFPSPMLYAGPTEVQWHCR (UniProt O95340)	0.259	0.286
P4HB_P07237_53+56_YLLVEFYAPWCGHCK (UniProt P07237)	-1.18	-1.92
P3H1_Q32P28_123_CLGPPAAHSLSEEMELEFR (UniProt Q32P28)	0.362	0.0519
NCAPD2_Q15021_767_VACCPLER (UniProt Q15021)	-0.647	-6.74
NUP88_Q99567_447_CFVEHILCTK (UniProt Q99567)	-0.156	-0.168
OFD1_O75665_157_ESCNMETQTSSTFNR (UniProt O75665)	-0.197	-0.205
NAE1_Q13564_34_LWGDHGQEALESAHVCLINATATGTEILK (UniProt Q13564)	0.173	0.162
